Measured values from article PMC4336329 (PLoS ONE, 2015).
About 2,200 (0.71%) of roughly 310,000 compounds showed an effect of 50% or more. Effects have a minus sign here. The list shows a part of the results.

biological target: human ether-à-go-go-related gene (hERG) potassium channel (human, UniProt Q12809); assay: primary screen, population patch clamp on CHO cells stably expressing hERG
Sequence (Q12809 whole entry, looked up): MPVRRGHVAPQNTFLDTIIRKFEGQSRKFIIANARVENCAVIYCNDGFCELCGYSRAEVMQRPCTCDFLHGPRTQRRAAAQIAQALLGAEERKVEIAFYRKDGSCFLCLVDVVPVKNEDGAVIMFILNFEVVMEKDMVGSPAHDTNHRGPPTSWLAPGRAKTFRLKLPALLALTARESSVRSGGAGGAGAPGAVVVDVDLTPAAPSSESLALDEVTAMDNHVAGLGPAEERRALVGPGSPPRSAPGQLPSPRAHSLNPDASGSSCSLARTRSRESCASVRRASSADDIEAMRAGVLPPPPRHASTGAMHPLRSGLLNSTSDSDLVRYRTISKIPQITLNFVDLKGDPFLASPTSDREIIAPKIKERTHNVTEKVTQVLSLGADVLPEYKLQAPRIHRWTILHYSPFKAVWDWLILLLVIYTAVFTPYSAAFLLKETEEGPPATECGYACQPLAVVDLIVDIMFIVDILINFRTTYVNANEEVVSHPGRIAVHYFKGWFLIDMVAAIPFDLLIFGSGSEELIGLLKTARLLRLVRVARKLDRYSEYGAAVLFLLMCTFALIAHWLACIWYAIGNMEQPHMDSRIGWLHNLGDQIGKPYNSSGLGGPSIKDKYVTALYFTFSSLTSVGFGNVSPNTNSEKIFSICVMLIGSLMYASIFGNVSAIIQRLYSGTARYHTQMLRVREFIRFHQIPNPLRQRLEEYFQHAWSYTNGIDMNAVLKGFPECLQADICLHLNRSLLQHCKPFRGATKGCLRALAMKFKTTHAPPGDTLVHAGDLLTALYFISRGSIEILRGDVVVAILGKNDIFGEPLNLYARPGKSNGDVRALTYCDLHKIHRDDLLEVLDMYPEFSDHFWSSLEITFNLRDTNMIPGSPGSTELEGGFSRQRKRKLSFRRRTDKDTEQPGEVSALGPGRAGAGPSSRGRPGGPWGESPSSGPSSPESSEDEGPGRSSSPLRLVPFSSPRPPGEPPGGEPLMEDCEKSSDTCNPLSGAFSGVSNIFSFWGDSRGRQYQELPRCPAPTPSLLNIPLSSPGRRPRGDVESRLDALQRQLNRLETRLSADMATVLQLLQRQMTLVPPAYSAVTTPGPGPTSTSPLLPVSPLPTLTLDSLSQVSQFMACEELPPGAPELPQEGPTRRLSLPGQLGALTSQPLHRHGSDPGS

Row | Compound | hERG current change (%, negative = inhibition) at 1uM [%]
1 | Cn1ncc(Cl)c(Oc2ccc(C(C)(C)C)cc2)c1=O | 11.3
2 | NC(=O)CSc1nnc(SCc2ccc(F)cc2)s1 | 7.37
3 | CCC(C)n1c(=O)c(C(=O)Nc2ccccc2S(N)(=O)=O)c(O)c2ccccc21 (stereo not drawn) | 8.97
4 | O=C(O)c1ccc(NS(=O)(=O)c2cc(Cl)sc2Cl)cc1 | 16.5
5 | COc1cc(C(=O)NCCC2=CCCCC2)ccc1OC1CCN(C(C)=O)CC1 | 16.8
6 | Cc1cc(C)c(NC(=O)CN2CCN(c3ccccn3)CC2)c(C)c1 | 10.9
7 | Nc1c(Cl)c(Cl)nc(C(=O)N/N=C/c2ccco2)c1Cl | 13.3
8 | CCc1ccc(NC2=CC(=O)CC(c3ccco3)C2)cc1 (stereo not drawn) | 12.9
9 | CC(Sc1nncn1C)C(=O)NCc1ccc2c(c1)OCO2 (stereo not drawn) | 21
10 | NS(=O)(=O)c1ccc(NC(=S)NCc2ccc3c(c2)OCO3)cc1 | 16.4
11 | Clc1ccc(OCc2nnnn2-c2ccccc2)cc1 | 4.02
12 | COc1cc(OC)c(NC(=O)CN(C)S(=O)(=O)c2ccc(-c3ccc(=O)[nH]n3)s2)cc1Cl | 5.27
13 | COC(=O)C1=CO[C@@H](O[C@@H]2O[C@H](CO)[C@@H](O)[C@H](O)[C@H]2O)[C@H]2[C@@H]1C(=O)C[C@@H]2C | 9.74
14 | CC1CN(C(=S)NC(=O)C2CCCCC2)CC(C)O1 (stereo not drawn) | 8.75
15 | CCCc1nnc(NC(=O)C23CC4CC(CC(C4)C2)C3)s1 | 11.8
16 | O=C(NCC1(N2CCCCC2)CCCCC1)c1ccc(S(=O)(=O)N2CCCC2)cc1 | -5.87
17 | O=C(O)c1ccc2c(c1)-c1nc3ccccc3n1C2=O | 14.6
18 | O=C(CN(C(=O)CNC(=O)c1ccco1)c1ccc2c(c1)OCCO2)NC1CCCC1 | 8.83
19 | COC(=O)CCCNC(=O)CCc1nnc(-c2ccc(-c3ccccc3)cc2)o1 | 10.2
20 | Cc1cc(-c2ccc(S(=O)(=O)N3CCN(c4ccc(F)cc4)CC3)s2)on1 | 12
21 | CCN(CCC(=O)Nc1cc([N+](=O)[O-])ccc1OC)Cc1ccccc1 | 4.85
22 | CCNC(=O)N1CCC(n2nccc2NC(=O)CCOc2ccccc2)CC1 | 12.9
23 | Cc1sc(NC(=O)C2=COCCO2)nc1-c1ccc(Cl)cc1 | 10.9

Row | Compound | hERG current change (%, negative = inhibition) at 1uM [%]
24 | CCc1nn2c(=O)cc(COC(=O)c3cc(Cl)c(OC)c(OC)c3)nc2s1 | -26.3
25 | C/C(Cl)=C/Cn1c(=O)c2c(nc(Br)n2Cc2ccccc2)n(C)c1=O | -1.21
26 | COc1ccc(CCNC(=O)Cn2c(=O)[nH]c3ccsc3c2=O)cc1OC | 12.7
27 | O=C(NCCc1cccc(F)c1)C1CCN(S(=O)(=O)c2ccc(F)cc2)CC1 | 11.2
28 | CCO[C@@H]1OC(C(=O)Nc2ccccc2)=C[C@H](c2csc3ccccc23)[C@H]1CCCO | 2.71
29 | CSc1nc(-c2ccc(C)cc2)nc(C(Cl)Cl)n1 | 6.45
30 | Cc1c(C(=O)NN2CCOCC2)oc2ccccc12 | 3.89
31 | COC(=O)c1sc2nc(CSc3nc4ccc(C)cc4[nH]3)[nH]c(=O)c2c1C | 14
32 | CC(C)C[C@H](NC(=O)c1[nH]cnc1C(=O)Nc1ccc(CNC(=O)OC(C)(C)C)cc1)C(=O)OCc1ccccc1 | 13
33 | N#C/C(=C\c1c(N2CCN(c3ccccc3)CC2)nc2ccccn2c1=O)C(N)=O | 8.18
34 | CCC(CO)NC(=O)c1cc2c(s1)CCC2 (stereo not drawn) | 1.86
35 | O=C(CNC(=O)c1ccc(Br)cc1)NC1CC1 | 9.77
36 | CCc1nc2ccc(C(=O)NCCc3ccc(OC)cc3)cc2nc1CC | 4.49
37 | Cc1cccc(C)c1NC(=O)NC1(C(=O)N2CCCC2)CCCCC1 | 13.5
38 | CCN(CC)C(=O)C1CCC(C)(C(=O)O)C1(C)C (stereo not drawn) | 13
39 | CCCCC1=CC2=CC(=O)C(C)(OC(=O)c3ccco3)C(=O)C2=CO1 (stereo not drawn) | 1.12
40 | CCn1c(COc2cccc3ccccc23)nnc1SCC(N)=O | 9.97
41 | C/C(=N\NC(=O)c1ccncc1)c1ccc(N(C)C)cc1 | 12.2
42 | O=C(OCc1nnc(-c2ccccc2)o1)C1CCN(S(=O)(=O)c2cccs2)CC1 | 16.9
43 | COc1ccc(C(=O)Nc2cccc(-c3nc4ncccc4o3)c2C)cc1 | 4.69
44 | Cc1c(N/C=C/C(=O)c2ccc(Cl)cc2)c(=O)n(-c2ccccc2)n1C | 6.53
45 | O=C(CSc1nnnn1-c1ccc(O)cc1)Nc1cccc(S(=O)(=O)N2CCCC2)c1 | 2.38
